# Test results published in the supplement of paper PMC3334620.
# Whole data set: some 33,000 sequences, median “E-score (-0.5 to 0.5)” near -0.011, cut for the highest 2% near 0.28. The list shows a part of the results.
# Target: T1, Gcr1 (UniProt P07261)
# T1 sequence: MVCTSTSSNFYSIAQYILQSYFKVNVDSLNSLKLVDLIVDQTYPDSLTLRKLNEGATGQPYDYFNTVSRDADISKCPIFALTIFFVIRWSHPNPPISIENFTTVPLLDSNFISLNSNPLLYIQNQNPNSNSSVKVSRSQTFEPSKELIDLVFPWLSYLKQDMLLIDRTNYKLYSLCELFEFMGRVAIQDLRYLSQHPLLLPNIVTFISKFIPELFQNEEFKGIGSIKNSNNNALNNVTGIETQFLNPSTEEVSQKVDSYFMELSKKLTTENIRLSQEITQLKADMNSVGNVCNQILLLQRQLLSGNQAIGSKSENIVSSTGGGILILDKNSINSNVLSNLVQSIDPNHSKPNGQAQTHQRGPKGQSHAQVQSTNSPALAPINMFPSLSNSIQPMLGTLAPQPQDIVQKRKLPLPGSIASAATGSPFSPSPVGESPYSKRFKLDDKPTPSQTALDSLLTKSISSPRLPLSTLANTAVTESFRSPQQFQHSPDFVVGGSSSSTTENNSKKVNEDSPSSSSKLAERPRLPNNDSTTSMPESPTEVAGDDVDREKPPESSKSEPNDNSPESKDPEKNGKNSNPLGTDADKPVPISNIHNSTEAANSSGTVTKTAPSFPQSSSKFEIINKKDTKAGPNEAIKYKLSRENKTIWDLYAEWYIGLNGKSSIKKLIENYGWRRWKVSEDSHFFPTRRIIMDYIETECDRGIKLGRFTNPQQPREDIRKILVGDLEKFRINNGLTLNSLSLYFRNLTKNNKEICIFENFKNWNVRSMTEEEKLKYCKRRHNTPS
# Assay: PBM E-score (8-mer binding enrichment) (E-score (-0.5 to 0.5)); higher = stronger / more preferred TF binding; most listed sequences are background and not binding sites
# Settings: protein concentration: 100 nM; construct: GST-full length
# How it was run: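 Each ungapped eight-base word and its reverse complement, pooled, received an E-score from the Universal PBM Analysis Suite. Underlying scans, normalised with masliner, recorded fluorescent anti-GST bound to GST-tagged yeast transcription factors. These were applied at about 100-200 nM to universal all-10-mer Agilent arrays double-stranded by primer extension.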
row,Sequence,PBM E-score
1,AAACCACC,0.0521
2,CCTGCGGC,-0.0454
3,ACTACCCA,-0.135
4,CCCCGGGA,0.0413
5,AGAAGATC,0.0201
6,AGCCTAAC,-0.0701
7,AGTGGCCC,0.0072
8,CAATCCGA,-0.0306
9,GCCCCACC,0.231
10,AAAGAATG,0.129
11,AACCTCCT,0.0152
12,GACCTGGA,-0.164
13,ACATAAAT,0.117
14,CAGTCGAG,-0.124
15,GGACTAAC,-0.157
16,AGGTCATA,-0.117
17,AACAACGT,-0.15
18,GCACAGCA,-0.0605
19,CCGGAGTA,-0.118
20,CATACCAA,-0.0378
21,CTGCGTTC,0.0949
22,AGACGATC,-0.203
23,ACTGGGAC,-0.054
24,GCACAGAA,-0.0512
25,ACGTGCCA,-0.122

row,Sequence,PBM E-score
1,GGACCGTA,-0.0641
2,ATCGTCTG,-0.0101
3,CCCGCGGG,0.0784
4,AAGTTTCA,0.115
5,CGCACACA,-0.194
6,GGCGCCAA,0.377
7,CGTCAGTC,-0.228
8,AGTTGAGA,0.0303
9,GCTTGCTA,-0.0698
10,TATACTAA,-0.109
11,ATTTACGC,0.129
12,ATATTCGG,0.24
13,GGCGGCCA,0.241
14,CATGCTAC,-0.123
15,GATAGCCA,-0.0815
16,AGGCCCAG,-0.134
17,CTGATAAA,0.159
18,ACCGAGTC,-0.306
19,ACCGACAG,-0.0165
20,ACTATATA,-0.0114
21,CCCGACCC,-0.0484
22,TAACAGTA,-0.051
23,CACAGGAG,0.0888
24,CTCGAACC,-0.108
25,CTGTGTGC,-0.141

row,Sequence,PBM E-score
1,CGCTACGA,-0.181
2,CGTGCCCC,-0.199
3,ATGCGTCC,-0.113
4,GGACGCAA,0.184
5,ATAGTAAC,0.0697
6,GCGAGCTA,-0.12
7,AGAGTAAA,-0.0626
8,ACGTTACT,-0.166
9,TCAAAGCA,0.0441
10,AACACAAA,0.0128
11,CATTGTCG,-0.205
12,ACAGTCAA,-0.113
13,AAATTCCT,0.0803
14,CGTGTCAG,0.00453
15,CAGGCTAG,-0.336
16,ACGCACGA,0.0691
17,ATAGTTCG,-0.0128
18,CTGTGAAA,0.0928
19,ACGACCTC,0.0804
20,AGGTATTG,0.0481
21,GAACACTA,-0.192
22,ATTGTTTA,-0.0373
23,CTTGTTCC,0.0403
24,CATTGTAG,0.101
25,GAAACTAC,0.0478

row,Sequence,PBM E-score
1,ATATACAT,0.165
2,CCTCCAGC,-0.201
3,GCTACGAC,-0.107
4,AGCTGCTA,0.226
5,CACTAATC,0.0878
6,CATTTTTA,0.0158
7,CACTTCTG,-0.0677
8,CATGAGTC,-0.011
9,TAGAGCCA,-0.119
10,AATGAATC,-0.0524
11,GCTACACA,-0.124
12,CTGGAAAC,0.196
13,ACCGGCAG,0.159
14,CAGCGCGC,0.0842
15,AACGACTC,0.0258
16,GACGTTCA,-0.193
17,GCGGCCCA,-0.136
18,TGCTTTAA,0.00539
19,CTATTCCC,-0.0625
20,ATTGGGAA,0.152
21,GGAAAACC,-0.0228
22,GCCCGTCA,0.0663
23,CTACATTC,0.0281
24,GTTCTTGA,0.0128
25,GCGTCGAC,-0.115

row,Sequence,PBM E-score
1,CATCCATC,-0.171
2,CACGAATC,0.131
3,CGTATACA,0.159
4,ATCGTTCG,0.11
5,GAGCCCTA,-0.0321
6,ATTAGTAA,0.15
7,AATCCTGA,0.147
8,CATGTTCA,-0.103
9,CCCTTACA,-0.0411
10,CCGAGTGC,0.00066
11,ACTTAGCC,-0.209
12,CGCTGTTA,-0.0384
13,AATGTGTG,-0.0856
14,ACATATCT,-0.0253
15,CTTTTTGA,0.115
16,CCTTGACA,-0.0879
17,AGTGGGTG,0.137
18,AACCCTGG,0.0629
19,AGCAGGAG,-0.13
20,ATTGTGTA,0.0943
21,AGAGTCAG,-0.0831
22,CCACCACA,0.0143
23,AACAAAGG,-0.238
24,CCGACTTA,0.0789
25,GTGTCGAA,-0.132

row,Sequence,PBM E-score
1,AGATGATA,0.0452
2,AACCTAAA,0.294
3,AAACAGCT,0.0222
4,GAAGCAGA,0.11
5,GAAGCCAC,0.417
6,GATGAATA,-0.112
7,AGGTACGA,0.147
8,CCCGTCAA,-0.0554
9,AGTAGACA,-0.0628
10,CATTGCCG,-0.2
11,CACACTTC,-0.069
12,AAGACCGG,0.0315
13,AGGGTTAG,-0.261
14,CGGACTCC,0.222
15,GTCGTCCA,0.0299
16,ACATATGA,-0.147
17,AACCTTGC,-0.0446
18,CTTTCAAC,0.0703
19,ACCCTTAC,-0.11
20,CGATAAAA,0.14
21,CCTCAGGC,-0.0279
22,CAACTGCA,0.0151
23,AAATACAC,0.149
24,GCGGAACA,-0.172
25,GGGCGACC,0.0839

row,Sequence,PBM E-score
1,CGGTGAAC,-0.0619
2,ACGTCACA,-0.214
3,CAGCTAGG,-0.113
4,CACGTCTG,-0.1
5,CGATATAG,-0.0106
6,CTTGAGGA,-0.00884
7,ATTATGAC,0.00022
8,CGGGACCC,0.306
9,AGTGCAAA,0.0141
10,ACCCGTCA,-0.186
11,AGCGCCCC,0.153
12,CTTTGTTA,0.107
13,CACGCTCG,-0.199
14,CAAATCGG,0.0561
15,CAACATAA,0.0513
16,GTGAGCAC,-0.125
17,CAGGTGCA,-0.0654
18,CACGATCG,-0.114
19,AATGGGAC,0.0245
20,ATGCATGG,-0.0167
21,TATATATA,0.103
22,AGGGAATA,0.0244
